Experimental data: PubChem BioAssay AID1347165 (National Center for Advancing Translational Sciences (NCATS), 2019)
The campaign covered roughly 220,000 compounds. About 5,700 (2.6%) were called active. The inconclusive results got no clear call from the source; some entries with a clear call stand among them for comparison. Calls follow the shape of the dose curve; as a rule, active = well fitted inhibition curve with a large enough effect; inconclusive = small, poorly fitted or top-dose-only effect; inactive = no such curve, though single readings can be large or run the other way. Potencies beside an inconclusive call are fits to weak or partial responses and may not hold up.

biological target: Lysine-specific demethylase 5B (Homo sapiens) (UniProt Q9UGL1); experiment: Primary screen for KDM5B Histone Demethylases FDH-coupled qHTS; details: FDH-coupled NADH fluorescence (FDH is formaldehyde dehydrogenase); activity change, negative = inhibition: at 57.7 µM (top of the series) unless noted; also: nearly all actives have a fitted effect of over 70% in size; as to activity change, negative = inhibition: 0% is about no effect
Outline: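 Measured: NADH fluorescence change, 30 min, RT. System: KDM5BΔAP 200 nM final, H3K4me3 peptide, α-KG, Fe(II), ascorbate, NAD⁺ plus FDH, pH 7.5 HEPES. Compounds: titrated, 10 min pre-incubation with enzyme.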
Potency is read from the fitted curve at half-maximal effect; tags tell the direction and shape of the fitted curve.

Chain of UniProt Q9UGL1 (Q9UGL1 whole entry, looked up): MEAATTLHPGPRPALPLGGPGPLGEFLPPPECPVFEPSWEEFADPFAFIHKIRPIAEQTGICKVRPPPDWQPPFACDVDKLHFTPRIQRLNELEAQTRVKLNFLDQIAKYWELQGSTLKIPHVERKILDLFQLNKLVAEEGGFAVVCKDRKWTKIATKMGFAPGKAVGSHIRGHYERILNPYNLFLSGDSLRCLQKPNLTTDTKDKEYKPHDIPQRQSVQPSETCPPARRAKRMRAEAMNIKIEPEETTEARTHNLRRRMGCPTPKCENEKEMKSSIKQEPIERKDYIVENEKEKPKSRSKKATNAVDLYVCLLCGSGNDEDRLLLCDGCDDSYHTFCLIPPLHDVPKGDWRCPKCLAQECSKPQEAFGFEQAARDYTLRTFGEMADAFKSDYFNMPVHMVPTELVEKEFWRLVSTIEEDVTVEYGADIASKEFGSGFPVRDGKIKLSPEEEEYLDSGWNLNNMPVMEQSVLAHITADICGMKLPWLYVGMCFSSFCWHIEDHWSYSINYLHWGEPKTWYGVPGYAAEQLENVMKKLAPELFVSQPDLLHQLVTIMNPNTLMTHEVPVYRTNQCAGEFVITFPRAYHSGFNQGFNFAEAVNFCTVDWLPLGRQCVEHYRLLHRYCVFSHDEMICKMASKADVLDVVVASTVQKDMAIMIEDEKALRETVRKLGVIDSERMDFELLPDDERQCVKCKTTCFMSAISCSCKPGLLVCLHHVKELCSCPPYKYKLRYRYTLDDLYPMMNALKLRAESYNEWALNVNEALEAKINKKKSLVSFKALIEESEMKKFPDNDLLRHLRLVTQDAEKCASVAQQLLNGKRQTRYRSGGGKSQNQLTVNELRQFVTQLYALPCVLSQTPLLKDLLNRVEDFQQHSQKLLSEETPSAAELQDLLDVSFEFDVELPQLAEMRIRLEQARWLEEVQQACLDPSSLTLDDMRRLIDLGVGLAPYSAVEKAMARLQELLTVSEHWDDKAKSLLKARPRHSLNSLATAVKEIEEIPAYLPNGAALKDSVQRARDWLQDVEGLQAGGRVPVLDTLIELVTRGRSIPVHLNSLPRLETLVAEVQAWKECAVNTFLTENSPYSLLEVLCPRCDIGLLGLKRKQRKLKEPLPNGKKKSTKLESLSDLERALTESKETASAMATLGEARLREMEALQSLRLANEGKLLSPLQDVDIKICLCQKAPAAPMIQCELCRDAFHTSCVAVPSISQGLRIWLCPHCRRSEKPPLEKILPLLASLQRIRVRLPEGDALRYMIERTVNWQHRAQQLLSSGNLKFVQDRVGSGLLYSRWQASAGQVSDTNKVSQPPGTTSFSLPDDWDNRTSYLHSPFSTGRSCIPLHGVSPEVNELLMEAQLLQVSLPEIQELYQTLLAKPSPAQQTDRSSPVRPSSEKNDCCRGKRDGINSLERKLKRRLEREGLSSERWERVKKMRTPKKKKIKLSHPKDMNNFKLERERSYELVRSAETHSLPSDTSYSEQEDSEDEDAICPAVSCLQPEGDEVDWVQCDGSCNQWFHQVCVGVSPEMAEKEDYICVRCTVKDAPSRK

| SMILES | Potency | activity change, negative = inhibition |
| --- | --- | --- |
| CCOc1ccc(S(=O)(=O)N2CCCCC2)cc1NC(=O)Cc1n[nH]c(=O)c2ccccc12 | inactive |  |
| CN(Cc1ccccc1)c1ncccc1CNC(=O)CN1CCOC1=O | inconclusive: 31.6 µM [inhibitor, single point] |  |
| Cc1ccc2nc(N(Cc3cccnc3)C(=O)c3cccs3)sc2c1 | inconclusive: 39.8 µM [inhibitor, single point] |  |
| CCCn1c(CCC(=O)Nc2cccc(CC)c2)nc2cccnc21 | inconclusive: 2.24 µM [inhibitor, full curve, poor fit] |  |
| Cc1cc(NC(=O)CSc2nnc3c(Cl)cc(C(F)(F)F)cn23)no1 | inactive |  |
| CCOc1ccc(-c2nc(C#N)c(N3CCN(C(=O)c4cccs4)CC3)o2)cc1 | inactive |  |
| CCC(=O)N(C1CCOCC1)C1CCN(S(=O)(=O)c2ccc(F)c(F)c2)CC1 | inactive |  |
| O=C([C@@H]1Cc2nc[nH]c2CN1Cc1cccc(OC(F)(F)F)c1)N1CCOCC1 | inconclusive: 28.2 µM [inhibitor, partial curve] |  |
| Cc1ccc(CCNC(=O)c2ccc3c(c2)c(C)c(C)n3Cc2ccccc2)cc1 | inconclusive: 15.8 µM [inhibitor, partial curve, poor fit] |  |
| COc1ccc2[nH]c3c(c2c1)CCN(C)C31CCN(C(=O)c2cc(C)[nH]n2)CC1 | inconclusive: 22.4 µM [inhibitor, single point] |  |
| CC(C)CCNc1nc(C(=O)Nc2nccs2)cs1 | inconclusive: 22.4 µM [inhibitor, single point] |  |
| CCc1ccc(NC(=O)Cn2nc3c(cc2=O)CC(C)CC3)cc1 (stereo not given) | inactive |  |
| CCOc1ccc(C(=O)Nc2ccc(-c3nc4ccccc4s3)c(C)c2)cc1OCC | inconclusive: 35.5 µM [inhibitor, single point] |  |
| Cc1cccc(N2CCN(C(=O)c3ccc(NC(=O)c4nsc5ccccc45)cc3)CC2)c1C | inconclusive: 28.2 µM [inhibitor, partial curve, poor fit] |  |
| Cc1ccc(S(=O)(=O)N2CC(C(=O)NCc3ccncc3)C3(CCOCC3)C2)c(C)c1 (stereo not given) | inactive |  |
| Cc1nc2c(C(=O)NCCc3ccccc3)c[nH]n2c(=O)c1Cc1ccc(F)cc1Cl | inconclusive: 28.2 µM [inhibitor, partial curve, poor fit] |  |
| Cc1ccc(NC(=O)Cn2nnc(-c3nc(-c4ccc(Cl)cc4)no3)c2N)cc1C |  | inconclusive: -34.9% [inhibitor] |
| Cc1c(C)c2cc(Cl)c(OCC(=O)NCCN3CCOCC3)cc2oc1=O | inconclusive: 10 µM [inhibitor, partial curve, poor fit] |  |
| O=C(CNC(=O)c1ccc(Oc2ccccc2)cc1)NNC(=O)CSc1cccc2cccnc12 | inconclusive: 31.6 µM [inhibitor, partial curve, poor fit] |  |
| CCC(CO)Nc1cccc2c1S(=O)(=O)N(Cc1cn(Cc3ccccc3C(F)(F)F)nn1)Cc1ccccc1O2 (stereo not given) | inconclusive: 31.6 µM [inhibitor, partial curve, poor fit] |  |

| SMILES | Potency | activity change, negative = inhibition |
| --- | --- | --- |
| CC1=C(C#N)C(c2ccccc2)C2=C(CC(C)(C)CC2=O)N1 (stereo not given) | inconclusive: 28.2 µM [inhibitor, partial curve, poor fit] |  |
| O=C(NCc1cccnc1)c1ccc2c(c1)n(Cc1ccc(F)cc1)c(=O)c1ccnn12 | active: 25.1 µM |  |
| CC(C)c1noc(-c2cn(C3CCN(C(=O)c4ccc5[nH]ccc5c4)CC3)nn2)n1 | inactive |  |
| O=C(Nc1ccc(Cl)cc1)c1ccc2c3c(cccc13)CC2 | inactive |  |
| CCCNC(=O)N1CCN2C(=O)c3cc(-c4cccc(C(F)(F)F)c4)ccc3NC(=O)[C@@H]2C1 | active: 31.6 µM |  |
| COCCNc1oc(-c2cccc(Cl)c2)nc1C#N | inconclusive: 28.2 µM [inhibitor, partial curve, poor fit] |  |
| CCCOc1ccc(-c2nc(N3CCN(CC)CC3)c3ccccc3n2)cc1 | inconclusive: 39.8 µM [inhibitor, single point] |  |
| O=C(Cn1c(=O)oc2ccccc21)N1CCC(N2CC3CC(C2)[C@H]2CCCC(=O)N2C3)CC1 (stereo not given in full) | inconclusive: 15.8 µM [inhibitor, partial curve, poor fit] |  |
| CNC(=O)[C@@H]1C[C@@H](n2cc(CN(C)C(=O)Nc3ccccc3)nn2)CN1 | inconclusive: 3.55 µM [inhibitor, full curve] |  |
| CC(C)c1ccc(-n2nnnc2SCC(=O)N(Cc2ccco2)C2=CCCCC2)cc1 | inactive |  |
| CN(Cc1ccccn1)C(C(=O)O)c1cnn(Cc2ccccc2)c1 (stereo not given) | inconclusive: 2.82 µM [inhibitor, partial curve, poor fit] |  |
| N#C/C(=C\c1ccc(OC(=O)c2ccc(Br)cc2)cc1)C(=O)Nc1ccccc1C(F)(F)F | inconclusive: 12.6 µM [inhibitor, partial curve, poor fit] |  |
| CN(C1CCOCC1)C1CCN(C(=O)c2ccccn2)CC1 | inactive |  |
| CCCn1c(C)cnc1CC1CCCN(S(=O)(=O)c2cccs2)C1 (stereo not given) | inactive |  |
| Cc1cccc(C(=O)Oc2ccc(C3(c4ccc(OC(=O)c5cccc(C)c5)cc4)OC(=O)c4ccccc43)cc2)c1 | inactive |  |
| Cc1nn2c(=O)cc(COC(=O)c3ccc(NC(=O)c4cccs4)cc3)nc2s1 | inconclusive: 1.58 µM [inhibitor, full curve, poor fit] |  |
| CCN(C(=O)Cn1nc(Cc2ccncc2)c2ccccc2c1=O)c1cccc(C(F)(F)F)c1 | inconclusive: 39.8 µM [inhibitor, single point] |  |
| C=CCNC(=O)[C@@H]1Cc2cn(Cc3nccn3C)c3cccc(c23)[C@H](CC(C)C)N1 | inconclusive: 35.5 µM [inhibitor, single point] |  |
| Cc1cc(C)cc(N(CC(=O)NCc2ccc(F)cc2)C(=O)c2snc(C(N)=O)c2N)c1 | inconclusive: 22.4 µM [inhibitor, partial curve, poor fit] |  |
| COc1ccc(/C=C/C(=O)Nc2ccc(S(=O)(=O)N3CCOCC3)cc2)c(OC)c1 | inconclusive: 25.1 µM [inhibitor, partial curve, poor fit] |  |
